Results: US20260200947A1, “FUSED CYCLIC COMPOUNDS AND USE THEREOF” (Jacobio Pharmaceuticals Co., Ltd., priority 2022, published 2026)

Key:
GDP-KRAS G12V = GDP-KRAS G12V (Homo sapiens, UniProt P01116, G12V); assay: biochemical
GDP-KRAS G12D = GDP-KRAS G12D (Homo sapiens, UniProt P01116, G12D); assay: biochemical

Compound	IC50 (GDP-KRAS G12V)	IC50 (GDP-KRAS G12D)
C[C@H]1CCOC[C@H]2N(C)c3nc(-c4cc(O)cc5ccc(F)c(F)c45)c(F)c4nc(OC[C@@]56CCCN5C[C@H](F)C6)nc(c34)N12 [Compound 73]	1.02 nM	1.49 nM
C#Cc1c(F)ccc2cc(N)cc(-c3nc4c5c(nc(OC[C@@]67CCCN6C[C@H](F)C7)nc5c3F)N3CC(C#N)COCC3N4C)c12 (some centres unmarked) [Compound 172]	1.04 nM	12.9 nM
C#Cc1c(F)ccc2cc(N)cc(-c3nc4c5c(nc(OC[C@@]67CCCN6C[C@H](F)C7)nc5c3F)N3CCCOC[C@H]3C4=C)c12 [Compound 21]	0.53 nM	0.767 nM
C#Cc1c(F)ccc2cc(N)cc(-c3nc4c5c(nc(OC[C@@]67CCCN6C[C@H](F)C7)nc5c3F)N3CCCC[C@@H](F)C3N4C)c12 (some centres unmarked) [Compound 49]	3.38 nM	2.1 nM
C#Cc1c(F)ccc2cc(N)cc(-c3nc4c5c(nc(OC[C@@]67CCCN6C[C@H](F)C7)nc5c3F)N3CC(C)COCC3N4C)c12 (some centres unmarked) [Compound 46]	1.97 nM	3.28 nM
C#Cc1c(F)ccc2cc(O)cc(-c3nc4c5c(nc(OC[C@@]67CCCN6C[C@H](F)C7)nc5c3F)N3CCOCC3C4=C)c12 (some centres unmarked) [Compound 12]	5.57 nM	12.8 nM
C#Cc1c(F)ccc2cc(N)cc(-c3nc4c5c(nc(OC[C@@]67CCCN6C[C@H](F)C7)nc5c3F)N3CCC=CCC3N4C)c12 (some centres unmarked) [Compound 72]	3.5 nM	3.17 nM
N#Cc1c(N)sc2c(F)ccc(-c3c(C4CC4)c4c5c(nc(OC[C@@]67CCCN6C[C@H](F)C7)nc5c3F)N3CCCOC[C@H]3CO4)c12 [Compound 132]	3.01 nM	3.39 nM
C#Cc1c(F)ccc2cc(N)cc(-c3nc4c5c(nc(OC[C@@]67CCCN6C[C@H](F)C7)nc5c3F)N3CC[C@@H](O)CC[C@H]3N4C)c12 [Compound 84]	2.59 nM	5.29 nM
CN(C)CC1(COc2nc3c4c(nc(-c5ccc(F)c6sc(N)c(C#N)c56)c(F)c4n2)N(C)[C@@H]2COCCCN32)CC1(F)F (some centres unmarked) [Compound 164]	4.18 nM	4.68 nM
C#Cc1c(F)ccc2cc(N)cc(-c3nc4c5c(nc(OC[C@@]67CCCN6C[C@H](F)C7)nc5c3F)N3CCCOCC3N4C)c12 (some centres unmarked) [Compound 10]	2.01 nM	2.51 nM
C#Cc1c(F)ccc2cc(N)cc(-c3nc4c5c(nc(OC[C@@]67CCCN6C[C@H](F)C7)nc5c3F)N3C(C5CCCO5)CCOCC3N4C)c12 (some centres unmarked) [Compound 100]	3.78 nM	9.91 nM
C#Cc1cccc2cc(N)cc(-c3nc4c5c(nc(OC[C@@]67CCCN6C[C@H](F)C7)nc5c3F)N3CCCOC[C@H]3N4C)c12 [Compound 51]	0.842 nM	0.792 nM
CN1c2nc(-c3ccc(F)c4sc(N)c(C#N)c34)c(F)c3nc(OC[C@@]45CCCN4C[C@H](F)C5)nc(c23)N2CCCOC[C@@H]12 [Compound 75]	4 nM	5.62 nM
C#Cc1c(F)ccc2cc(N)cc(-c3nc4c5c(nc(OCC67CCCN6CC6(C7)CC6(F)F)nc5c3F)N3CCCOC[C@H]3CO4)c12 (some centres unmarked) [Compound 25]	2.97 nM	2.58 nM
N#Cc1c(N)sc2c(F)ccc(-c3cc4c5c(nc(OC[C@@]67CCCN6C[C@H](F)C7)nc5c3F)N3CCCOC[C@H]3CO4)c12 [Compound 161]	0.901 nM	1.77 nM
C#Cc1c(F)ccc2cc(N)cc(-c3nc4c5c(nc(OCC6(CN7CC8CC8C7)CC6)nc5c3F)N3CCCOCC3N4C)c12 (centres unmarked) [Compound 117]	3.37 nM	5.88 nM
C#Cc1c(F)ccc2cc(N)cc(-c3nc4c5c(nc(OC[C@@]67CCCN6C[C@H](F)C7)nc5c3F)N3CCC=CC3N4C)c12 (some centres unmarked) [Compound 71]	2.23 nM	1.55 nM
C#Cc1c(F)ccc2cc(N)cc(-c3nc4c5c(nc(OC[C@@]67CCCN6C[C@H](F)C7)nc5c3F)N3CC(F)(F)CCC3N4C)c12 (some centres unmarked) [Compound 53]	7.14 nM	6.82 nM
C#Cc1c(F)c(F)cc2cc(N)cc(-c3nc4c5c(nc(OC[C@@]67CCCN6C[C@H](F)C7)nc5c3F)N3CCCOC[C@H]3CO4)c12 [Compound 8]	0.55 nM	1.03 nM
C#Cc1c(F)ccc2cc(N)cc(-c3nc4c5c(nc(OCC67CCCN6CC(F)C7)nc5c3F)N3CCC5CC5C(F)C3N4C)c12 (centres unmarked) [Compound 116]	3.55 nM	6.76 nM
C#Cc1c(F)ccc2cc(N)cc(-c3nc4c5c(nc(OC[C@@]67CCCN6C[C@H](F)C7)nc5c3F)N3CC(CF)COCC3N4C)c12 (some centres unmarked) [Compound 124]	6.68 nM	8.98 nM
C#Cc1c(F)ccc2cc(N)cc(-c3nc4c5c(nc(OC[C@@]67CCCN6C[C@H](F)C7)nc5c3F)N3CCC=CC[C@H]3CO4)c12 [Compound 37]	0.535 nM	0.867 nM
C#Cc1c(F)ccc2cc(N)cc(-c3nc4c5c(nc(OC[C@@]67CCCN6C[C@H](F)C7)nc5c3F)N3CCCCC(C)C3N4C)c12 (some centres unmarked) [Compound 121]	3.89 nM	2.94 nM
C#Cc1c(F)ccc2cc(N)cc(-c3nc4c5c(nc(OC[C@@]67CCCN6C[C@H](F)C7)nc5c3F)N3C5CC5COC[C@H]3CO4)c12 (some centres unmarked) [Compound 35]	2.78 nM	3.53 nM
